# From article PMC4336329 (PLoS ONE, 2015)
# Out of some 310,000 compounds screened, about 14,000 (4.5%) showed an effect of 50% or more. The effect is printed as a negative number. Some of the results follow.
# Target: human ether-à-go-go-related gene (hERG) potassium channel (human, UniProt Q12809)
# Assay: primary screen, population patch clamp on CHO cells stably expressing hERG
# 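Further: peak tail current of the secondary pulse compared with the same well before compound.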
# Chain of human ether-à-go-go-related gene (hERG) potassium channel (Q12809 whole entry, looked up): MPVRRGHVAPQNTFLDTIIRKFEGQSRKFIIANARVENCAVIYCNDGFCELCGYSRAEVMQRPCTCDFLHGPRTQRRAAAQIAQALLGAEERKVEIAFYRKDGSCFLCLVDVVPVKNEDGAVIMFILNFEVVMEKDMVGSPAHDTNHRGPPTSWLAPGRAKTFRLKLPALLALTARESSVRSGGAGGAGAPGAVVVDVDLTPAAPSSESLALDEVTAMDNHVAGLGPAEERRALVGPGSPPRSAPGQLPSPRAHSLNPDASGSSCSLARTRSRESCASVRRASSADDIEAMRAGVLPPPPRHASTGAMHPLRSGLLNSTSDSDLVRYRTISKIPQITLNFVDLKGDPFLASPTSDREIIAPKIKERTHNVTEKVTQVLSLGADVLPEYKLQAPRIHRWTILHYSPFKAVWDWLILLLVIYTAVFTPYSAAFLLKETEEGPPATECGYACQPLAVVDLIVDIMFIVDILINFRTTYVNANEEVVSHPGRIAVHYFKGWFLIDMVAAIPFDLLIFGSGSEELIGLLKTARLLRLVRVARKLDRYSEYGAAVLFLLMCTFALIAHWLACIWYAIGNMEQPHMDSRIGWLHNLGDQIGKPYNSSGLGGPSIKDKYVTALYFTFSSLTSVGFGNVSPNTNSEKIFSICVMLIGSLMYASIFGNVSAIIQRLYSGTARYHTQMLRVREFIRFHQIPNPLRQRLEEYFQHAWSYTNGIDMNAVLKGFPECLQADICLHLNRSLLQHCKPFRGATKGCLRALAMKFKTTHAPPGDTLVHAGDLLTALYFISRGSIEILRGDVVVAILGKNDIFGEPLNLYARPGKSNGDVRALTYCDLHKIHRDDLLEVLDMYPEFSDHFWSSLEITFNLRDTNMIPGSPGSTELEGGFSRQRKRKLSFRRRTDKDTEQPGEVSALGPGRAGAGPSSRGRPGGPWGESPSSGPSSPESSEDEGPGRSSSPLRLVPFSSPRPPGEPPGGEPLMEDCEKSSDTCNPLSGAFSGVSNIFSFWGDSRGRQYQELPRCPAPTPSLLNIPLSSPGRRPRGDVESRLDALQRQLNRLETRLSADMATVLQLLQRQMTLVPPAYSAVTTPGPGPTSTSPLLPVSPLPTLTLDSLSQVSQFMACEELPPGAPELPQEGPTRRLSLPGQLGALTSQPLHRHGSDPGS
row,SMILES,"hERG current change (%, negative = inhibition) at 10uM"
1,CCO[C@@H]1OC(C(N)=O)=C[C@H](c2ccc(C(F)(F)F)cc2)[C@H]1CCCO,-2.64%
2,CCOc1cc(/C=C2\CCC/C(=C\c3cc(Cl)c(O)c(OCC)c3)C2=O)cc(Cl)c1O,11.6%
3,CCOc1ccc(S(=O)(=O)NCCC(=O)N2CCN(c3ncccn3)CC2)cc1,-8.57%
4,C#CCOCCOCCOCCNc1nc(N2CCN(C(=O)Cn3cc(CCC[NH+]=C(N)N)nn3)CC2)nc(N2CCN(C(=O)[C@H](CCCC[NH3+])n3cc(CC(C)O)nn3)CC2)n1.[Cl-] (some centres unmarked),16.4%
5,COC(=O)c1ccccc1N=Cc1c(O)[nH]c(=O)[nH]c1=O,3.19%
6,COc1ccc(N2CCN(S(=O)(=O)c3c(C)nc4scc(C)n4c3=O)CC2)cc1,-0.624%
7,O=C(COC(=O)c1ccc(S(=O)(=O)Nc2ccccc2)cc1)NCC1CCCO1 (centres unmarked),1.33%
8,CC(C)(C)N1CSC(=S)N(Cc2ccccc2)C1,13.8%
9,CCOc1ccc(CCNC(=O)COC(=O)Cc2ccc(OC)c(OC)c2)cc1OCC,7.37%
10,Cc1cc(=O)oc2cc(OCC(=O)N3CCN(C(=O)C4COc5ccccc5O4)CC3)ccc12 (centres unmarked),-53.6%
11,CCOc1ccc2nc(SCC(=O)NCc3ccc4c(c3)OCO4)[nH]c2c1,-24.2%
12,O=C(O)c1ccccc1NS(=O)(=O)c1ccc2ccccc2c1,22.3%
13,CCOC(=O)C(Cc1ccccc1)C(=O)Nc1nccs1 (centres unmarked),11.3%
14,Cc1cccc(C(C)C)c1NC(=O)COC(=O)COc1ccc2c(C)cc(=O)oc2c1,5.19%
15,Cc1ccc(C(=O)NC(C)c2ccccc2)cc1S(=O)(=O)N1CCOCC1 (centres unmarked),-1.39%
16,Cn1cncc1C#Cc1ccc2cc(C(C)(C)O)oc(=O)c2c1,2.61%
17,CC1CCCN(c2c3c(nc4ccccc24)CCCC3)C1 (centres unmarked),-65.2%
18,O=C(NCCCn1ccnc1)C(=O)NC1CCCCC1,10.7%
19,COc1ccc(C(=O)NC2CC(C)(C)Cc3c2cnn3-c2ccccc2)c(OC)c1 (centres unmarked),-2.5%

row,SMILES,"hERG current change (%, negative = inhibition) at 10uM"
1,O=C(CCN1C(=O)c2ccccc2C1=O)C1=NN[C@@H]2C(=O)N(c3ccc4c(c3)OCCO4)C(=O)[C@H]12,5.64%
2,O=C(O)/C=C/C(=O)NCCc1cccc(Cl)c1,0.0402%
3,CC(=O)NS(=O)(=O)c1ccc(NC(=O)/C=C/c2ccc(C)o2)cc1,9.8%
4,Cc1ccccc1NC(=O)CC(C)S(=O)(=O)c1ccc2c(c1)NC(=O)CO2 (centres unmarked),-6.12%
5,Cc1ccc(O)c(C(=O)c2cc(C#N)c(=O)n(C(C)c3ccccc3)c2)c1 (centres unmarked),-9.78%
6,COc1cccc(N=Nc2c(O)[nH]c(=S)[nH]c2=O)c1,5.38%
7,CCOc1ccc2[nH]cc(S(=O)(=O)c3ccc(C)cc3)c(=O)c2c1,-1.08%
8,CCOc1cc(Br)c(COc2ccc(C)nc2[N+](=O)[O-])cc1OCC,19.5%
9,COc1ccccc1N(CN1CCCC1=O)C(=O)c1c(F)cccc1Cl,3.97%
10,CC(=O)c1ccc(N2Cc3ccccc3C2)cc1,-2.58%
11,Cn1c(=O)cc(SCC(=O)Nc2ccc3c(c2)OCO3)c2ccccc21,9.14%
12,CC(C)CC(=O)N(Cc1ccc(F)cc1)C1CCS(=O)(=O)C1 (centres unmarked),9.79%
13,CC(=O)c1cccc(N(C(=O)c2ccco2)C(C(=O)NC2CCCC2)c2ccncc2)c1 (centres unmarked),5.79%
14,Cc1cccc(-n2c(C)nc3ccccc3c2=O)n1,-4.26%
15,O=C(c1ccccc1)c1cn(CC(=O)N2CCOCC2)c2ccccc12,-0.668%
16,COc1ccc(C(=S)N2CCOCC2)cc1OC(=O)c1ccccc1Cl,5.98%
17,CCOC(=O)C(C)C1(O)c2ccccc2-c2ncccc21 (centres unmarked),-14.6%
18,Cc1ccc(SCCOCCN2CCOCC2)cc1.Cl,-1.55%
19,CC(Oc1ccccc1F)C(=O)Nc1ccc2ccccc2c1 (centres unmarked),8.86%

row,SMILES,"hERG current change (%, negative = inhibition) at 10uM"
1,O=C(O)CC1SC(=O)NC1=O (centres unmarked),4.76%
2,COc1ccc(C(=O)NNC2=CC(=O)CC(C)(C)C2)cc1OC,14.6%
3,O=C1CCC(=O)N1c1ccc(CSc2nc3ccccc3[nH]2)cc1,7.12%
4,Cc1ccc(C)c(N2CCN(C(=O)C3CCCN(S(=O)(=O)c4c(C)[nH]c(=O)[nH]c4=O)C3)CC2)c1 (centres unmarked),-3.67%
5,Cc1ccc(-n2nc3ccc(N)cc3n2)cc1,-2.95%
6,NNC(=O)C1CC(O)CN1S(=O)(=O)c1ccc(Cl)cc1 (centres unmarked),12.8%
7,CSc1nnc(C)c(/C=C/Nc2ccc(F)cc2F)n1,3.78%
8,O=C(NCc1ccccn1)c1ccc(Cl)cc1Cl,-10.8%
9,COC(=O)CC1C(=O)NCCN1C(=O)c1ccc(Cl)cc1 (centres unmarked),17%
10,Cc1ccc(-c2csc(CC(N)=O)n2)cc1,13%
11,COc1ccc(OC)c(NC(=O)c2cccc(S(=O)(=O)N3CCN(C(C)=O)CC3)c2)c1,-7.13%
12,CCCCn1c(N)c(N(CCOC)C(=O)COC(=O)c2ccccc2OCC)c(=O)[nH]c1=O,16.3%
13,Cc1nn(-c2ccccc2)c(C)c1/C=N/NC(=O)c1cc(C23CC4CC(CC(C4)C2)C3)[nH]n1,4.5%
14,COC(=O)c1c(NC(=O)C2CCCCC2)sc2c1CC(C)(C)NC2(C)C,-17.7%
15,CN(C)c1nc(N)nc(CSc2n[nH]c(-c3ccccc3)n2)n1,-8.58%
16,Cc1ccc(-c2[nH]ncc2CN2CCN(C(=O)c3cccs3)CC2)cc1C,-62.5%
17,Cc1cccnc1NC(=O)c1sc2ccccc2c1Cl,2.5%
18,O=C(c1ccccc1F)N(Cc1cccs1)C1CCS(=O)(=O)C1 (centres unmarked),21.9%
